About 14,000 (4.5%) of roughly 310,000 compounds showed an effect of 50% or more. The effect is printed as a negative number. This is one part of the list.
target: human ether-à-go-go-related gene (hERG) potassium channel (human, UniProt Q12809); experiment: primary screen, population patch clamp on CHO cells stably expressing hERG
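Also: peak tail current of the secondary pulse compared with the same well before compound.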

Sequence of human ether-à-go-go-related gene (hERG) potassium channel (Q12809 whole entry, looked up): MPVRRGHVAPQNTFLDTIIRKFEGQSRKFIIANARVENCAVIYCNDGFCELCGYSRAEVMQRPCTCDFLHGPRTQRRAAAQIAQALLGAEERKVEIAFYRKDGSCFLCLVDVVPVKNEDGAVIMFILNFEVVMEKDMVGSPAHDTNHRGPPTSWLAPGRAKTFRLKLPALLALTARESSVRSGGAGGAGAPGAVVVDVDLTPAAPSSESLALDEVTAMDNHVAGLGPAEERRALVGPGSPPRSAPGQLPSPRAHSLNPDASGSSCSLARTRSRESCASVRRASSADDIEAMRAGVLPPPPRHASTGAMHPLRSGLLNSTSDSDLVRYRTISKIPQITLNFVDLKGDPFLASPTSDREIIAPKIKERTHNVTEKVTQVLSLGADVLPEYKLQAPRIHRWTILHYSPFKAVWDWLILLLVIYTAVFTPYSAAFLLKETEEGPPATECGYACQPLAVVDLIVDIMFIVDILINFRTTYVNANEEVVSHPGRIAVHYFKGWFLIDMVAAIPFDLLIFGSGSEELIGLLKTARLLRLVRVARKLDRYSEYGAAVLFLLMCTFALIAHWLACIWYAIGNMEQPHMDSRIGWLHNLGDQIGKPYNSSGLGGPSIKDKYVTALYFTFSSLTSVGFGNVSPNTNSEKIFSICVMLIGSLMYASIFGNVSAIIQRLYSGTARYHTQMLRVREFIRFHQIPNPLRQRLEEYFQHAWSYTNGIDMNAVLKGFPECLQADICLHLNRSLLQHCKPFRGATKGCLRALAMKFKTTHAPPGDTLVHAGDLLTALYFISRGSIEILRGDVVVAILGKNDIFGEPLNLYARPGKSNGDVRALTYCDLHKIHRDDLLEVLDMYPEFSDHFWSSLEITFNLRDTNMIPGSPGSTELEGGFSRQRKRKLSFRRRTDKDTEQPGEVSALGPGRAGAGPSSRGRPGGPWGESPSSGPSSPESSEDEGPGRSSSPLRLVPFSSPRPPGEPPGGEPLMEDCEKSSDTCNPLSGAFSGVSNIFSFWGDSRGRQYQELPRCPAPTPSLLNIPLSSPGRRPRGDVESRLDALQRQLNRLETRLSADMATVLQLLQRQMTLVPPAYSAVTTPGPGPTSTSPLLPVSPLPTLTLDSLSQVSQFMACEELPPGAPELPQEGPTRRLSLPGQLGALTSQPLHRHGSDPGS

| SMILES | hERG current change (%, negative = inhibition) at 10uM [%] |
| --- | --- |
| Cc1ccc(S(=O)(=O)N(C)C)cc1NC(=O)CSc1ncc(C(F)(F)F)cc1Cl | -33.6 |
| COc1ccc(-c2cc(-c3ccccc3)nc(NN)n2)cc1OC | -2.76 |
| CC1(C)CC(NC(=O)Nc2ccc([N+](=O)[O-])cc2)CC(C)(C)N1 | 9.76 |
| COc1ccc(CNC(=O)CN(C(=O)c2csnn2)c2ccc(C(C)=O)cc2)cc1 | -23.4 |
| Cc1ccc(-c2noc(CSc3nnnn3C3CCCCC3)n2)cc1 | -1.67 |
| CC1CN(C(=O)CSc2nc(-c3ccccc3)cs2)CC(C)O1 (centres unmarked) | 3.57 |
| C=CC[n+]1c(/C=C/c2ccc(OC(C)=O)c(OC)c2)ccc2ccccc21.[Cl-] | -25.9 |
| O=C(Nc1ccc(S(=O)(=O)N2CCCCC2)cc1)c1ccccc1F | 10 |
| CCc1nccn1S(=O)(=O)c1ccc(OC)c(C)c1C | 8.72 |
| Cc1cc(O)c(C(=O)/C=C/c2ccccc2)c(=O)o1 | 8.4 |
| C[C@H](NC(=O)c1nc[nH]c1C(=O)N[C@@H](C)c1ccccc1)C(=O)OC(C)(C)C | -1.83 |
| O=C(O)c1cc(S(=O)(=O)N2CCN(c3ccccn3)CC2)ccc1Cl | 19.6 |
| Cc1cc(NC(=O)CCCS(=O)(=O)c2nc(-c3cccs3)cc(C(F)(F)F)n2)no1 | -1.15 |
| O=C(Nc1ccc([N+](=O)[O-])cc1)c1nc[nH]c1C(=O)NC1CCCCC1 | 16.2 |
| CC1Oc2ccccc2C=C1/C=C1/SC(N2CCOCC2)=NC1=O (centres unmarked) | -41.8 |
| CCOC(=O)C1CCCN(C2CCN(Cc3nc(-c4ccccc4)no3)CC2)C1 (centres unmarked) | -56.5 |
| Cc1cc(-c2nnc(SCC(=O)NC3CC3)n2C(C)C)cs1 | -23 |
| COc1ccccc1CCC(=O)Nc1ccc(S(=O)(=O)Nc2cc(C)nc(C)n2)cc1 | 12 |
| CC(C)(C)c1ccc(C(=O)N2CCC(=O)N(C(COCc3ccccc3)Cc3ccccc3)CC2)cc1 (centres unmarked) | -6.83 |
| COc1ccc(C2Nc3ccccc3NC3=C2C(=O)CC(C)(C)C3)c(OC)c1OC (centres unmarked) | -46.8 |
| CCN(CC)c1ccc(N2C(=O)C3CCCCC3C2=O)cc1[N+](=O)[O-] (centres unmarked) | 2.43 |
| Cc1ccc(Oc2nc3ccccc3n3c(C)nnc23)c(C)c1 | -3.58 |
| CCN1C(=O)N/C(=C/c2ccc(C)o2)C1=O | 4.76 |

Reference: article PMC4336329 (PLoS ONE, 2015)
